According to the supplement of paper PMC9174493:
Some of the results follow. Single values of this set are uncertain. Values with irradiation are relative to irradiated vehicle.

Tests used:
A549-Dual [1] = assay: NF-kB reporter (SEAP) activity, viability-corrected, relative to vehicle (fold change vs vehicle); higher = more activation of STING-IRF / NF-kB immune response reporter; details: 10 µM
A549-Dual [2] = assay: ISRE reporter (Lucia luciferase) activity, viability-corrected, relative to vehicle (fold change vs vehicle); higher = more activation of STING-IRF / NF-kB immune response reporter; details: 10 µM
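Throughout, for NF-kB reporter (SEAP) activity, viability-corrected, relative to vehicle: viability correction based on the alamar blue assay, with concentrations leaving 10% survival or less dropped.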

## C=CCc1ccc(O)c(-c2ccc(O)c(CC=C)c2)c1 [Honokiol]
A549-Dual [1]; irradiation: 8 Gy/4 fr
  NF-kB reporter: 0.52
A549-Dual [1]; irradiation: none
  NF-kB reporter: 0.373
A549-Dual [2]; irradiation: 8 Gy/4 fr
  ISRE reporter: 0.598
A549-Dual [2]; irradiation: none
  ISRE reporter: 0.552

## CCCCCCCCCCCCCCCCO [1-Hexadecanol]
A549-Dual [1]; irradiation: 8 Gy/4 fr
  NF-kB reporter: 1.36
A549-Dual [1]; irradiation: none
  NF-kB reporter: 3.27
A549-Dual [2]; irradiation: 8 Gy/4 fr
  ISRE reporter: 1.25
A549-Dual [2]; irradiation: none
  ISRE reporter: 4.79

## CCOC(=O)C1=CC2(CC)CCCN3CCc4c(n1c1ccccc41)C32 (stereo not drawn) [Vinpocetine]
A549-Dual [1]; irradiation: 8 Gy/4 fr
  NF-kB reporter: 0.567
A549-Dual [1]; irradiation: none
  NF-kB reporter: 0.589
A549-Dual [2]; irradiation: 8 Gy/4 fr
  ISRE reporter: 0.618
A549-Dual [2]; irradiation: none
  ISRE reporter: 0.615

## COC(=O)C1=C(C)NC(C)=C(C(=O)OC(C)(C)CN(C)CCC(c2ccccc2)c2ccccc2)C1c1cccc([N+](=O)[O-])c1.Cl (stereo not drawn) [Lercanidipine hydrochloride]
A549-Dual [1]; irradiation: 8 Gy/4 fr
  NF-kB reporter: 0.618
A549-Dual [1]; irradiation: none
  NF-kB reporter: 1
A549-Dual [2]; irradiation: 8 Gy/4 fr
  ISRE reporter: 0.533
A549-Dual [2]; irradiation: none
  ISRE reporter: 0.704

## CCN(CC)C(=O)C1(c2ccccc2)CC1CN.Cl (stereo not drawn) [Levomilnacipran Hydrochloride]
A549-Dual [1]; irradiation: 8 Gy/4 fr
  NF-kB reporter: 0.893
A549-Dual [1]; irradiation: none
  NF-kB reporter: 1.36
A549-Dual [2]; irradiation: 8 Gy/4 fr
  ISRE reporter: 0.894
A549-Dual [2]; irradiation: none
  ISRE reporter: 0.967

## CC1(C(=O)O)CCC2(C)CCC3(C)C(=CC(=O)C4C5(C)CCC(OC6OC(C(=O)O)C(O)C(O)C6OC6OC(C(=O)O)C(O)C(O)C6O)C(C)(C)C5CCC43C)C2C1.N (stereo not drawn) [Ammonium Glycyrrhizate]
A549-Dual [1]; irradiation: 8 Gy/4 fr
  NF-kB reporter: 0.887
A549-Dual [1]; irradiation: none
  NF-kB reporter: 0.832
A549-Dual [2]; irradiation: 8 Gy/4 fr
  ISRE reporter: 0.84
A549-Dual [2]; irradiation: none
  ISRE reporter: 0.67

## CC(C)OC(=O)CCC/C=C\CC1C(O)CC(O)C1/C=C/C(O)COc1cccc(C(F)(F)F)c1 (stereo not drawn) [Travoprost]
A549-Dual [1]; irradiation: 8 Gy/4 fr
  NF-kB reporter: 0.709
A549-Dual [1]; irradiation: none
  NF-kB reporter: 0.954
A549-Dual [2]; irradiation: 8 Gy/4 fr
  ISRE reporter: 0.374
A549-Dual [2]; irradiation: none
  ISRE reporter: 0.671

## Cc1cc(=O)oc2cc(O)ccc12 [4-Methylumbelliferone (4-MU)]
A549-Dual [1]; irradiation: 8 Gy/4 fr
  NF-kB reporter: 0.911
A549-Dual [1]; irradiation: none
  NF-kB reporter: 0.906
A549-Dual [2]; irradiation: 8 Gy/4 fr
  ISRE reporter: 0.893
A549-Dual [2]; irradiation: none
  ISRE reporter: 0.842

## CC(C)[N+](C)(CCOC(=O)C1c2ccccc2Oc2ccccc21)C(C)C.[Br-] [Propantheline bromide]
A549-Dual [1]; irradiation: 8 Gy/4 fr
  NF-kB reporter: 0.717
A549-Dual [1]; irradiation: none
  NF-kB reporter: 0.998
A549-Dual [2]; irradiation: 8 Gy/4 fr
  ISRE reporter: 0.725
A549-Dual [2]; irradiation: none
  ISRE reporter: 0.603

## CC(OC1OCCN(Cc2n[nH]c(=O)[nH]2)C1c1ccc(F)cc1)c1cc(C(F)(F)F)cc(C(F)(F)F)c1 (stereo not drawn) [Aprepitant]
A549-Dual [1]; irradiation: 8 Gy/4 fr
  NF-kB reporter: 0.455
A549-Dual [1]; irradiation: none
  NF-kB reporter: 0.768
A549-Dual [2]; irradiation: 8 Gy/4 fr
  ISRE reporter: 0.511
A549-Dual [2]; irradiation: none
  ISRE reporter: 1.52

## CNc1ncc(-c2ccc3c(=O)c(C(=O)O)cn(C4CC4)c3c2C)cc1C [Ozenoxacin]
A549-Dual [1]; irradiation: 8 Gy/4 fr
  NF-kB reporter: 1.09
A549-Dual [1]; irradiation: none
  NF-kB reporter: 1.39
A549-Dual [2]; irradiation: 8 Gy/4 fr
  ISRE reporter: 0.881
A549-Dual [2]; irradiation: none
  ISRE reporter: 0.982

## NC(C(=O)O)C(O)c1ccc(O)c(O)c1 (stereo not drawn) [Droxidopa]
A549-Dual [1]; irradiation: 8 Gy/4 fr
  NF-kB reporter: 1.18
A549-Dual [1]; irradiation: none
  NF-kB reporter: 0.834
A549-Dual [2]; irradiation: 8 Gy/4 fr
  ISRE reporter: 1.24
A549-Dual [2]; irradiation: none
  ISRE reporter: 0.703

## C=CC[N+]1(C2CC3C4CCC5CC(O)C(N6CCOCC6)CC5(C)C4CCC3(C)C2OC(C)=O)CCCC1.[Br-] (stereo not drawn) [Rocuronium Bromide]
A549-Dual [1]; irradiation: 8 Gy/4 fr
  NF-kB reporter: 0.58
A549-Dual [1]; irradiation: none
  NF-kB reporter: 0.839
A549-Dual [2]; irradiation: 8 Gy/4 fr
  ISRE reporter: 0.659
A549-Dual [2]; irradiation: none
  ISRE reporter: 0.854

## CN(C)C(=N)NC(=N)N.Cl [Metformin HCl]
A549-Dual [1]; irradiation: 8 Gy/4 fr
  NF-kB reporter: 0.83
A549-Dual [1]; irradiation: none
  NF-kB reporter: 0.965
A549-Dual [2]; irradiation: 8 Gy/4 fr
  ISRE reporter: 0.8
A549-Dual [2]; irradiation: none
  ISRE reporter: 0.829

## O=c1ccn(C2OC(CO)C(O)C2O)c(=O)[nH]1 (stereo not drawn) [Uridine]
A549-Dual [1]; irradiation: 8 Gy/4 fr
  NF-kB reporter: 0.746
A549-Dual [1]; irradiation: none
  NF-kB reporter: 0.996
A549-Dual [2]; irradiation: 8 Gy/4 fr
  ISRE reporter: 0.711
A549-Dual [2]; irradiation: none
  ISRE reporter: 0.73

## C=C(C)C1CCC2(CO)CCC3(C)C(CCC4C5(C)CCC(O)C(C)(C)C5CCC43C)C12 (stereo not drawn) [Betulin]
A549-Dual [1]; irradiation: 8 Gy/4 fr
  NF-kB reporter: 2.34
A549-Dual [1]; irradiation: none
  NF-kB reporter: 1.03
A549-Dual [2]; irradiation: 8 Gy/4 fr
  ISRE reporter: 0.129
A549-Dual [2]; irradiation: none
  ISRE reporter: 0.138

## CO/N=C(\C(=O)NC1C(=O)N2C(C(=O)[O-])=C(C[n+]3ccn4ncccc43)CSC12)c1nsc(N)n1.Cl (stereo not drawn) [Cefozopran hydrochloride]
A549-Dual [1]; irradiation: 8 Gy/4 fr
  NF-kB reporter: 0.871
A549-Dual [1]; irradiation: none
  NF-kB reporter: 0.677
A549-Dual [2]; irradiation: 8 Gy/4 fr
  ISRE reporter: 0.817
A549-Dual [2]; irradiation: none
  ISRE reporter: 0.504

## CC(C)NCC(O)c1ccc(O)c(O)c1.Cl (stereo not drawn) [Isoprenaline HCl]
A549-Dual [1]; irradiation: 8 Gy/4 fr
  NF-kB reporter: 1.08
A549-Dual [1]; irradiation: none
  NF-kB reporter: 1.32
A549-Dual [2]; irradiation: 8 Gy/4 fr
  ISRE reporter: 1.04
A549-Dual [2]; irradiation: none
  ISRE reporter: 1.08

## CCCNC(C)C(=O)Nc1ccccc1C (stereo not drawn) [Prilocaine]
A549-Dual [1]; irradiation: 8 Gy/4 fr
  NF-kB reporter: 1.12
A549-Dual [1]; irradiation: none
  NF-kB reporter: 0.849
A549-Dual [2]; irradiation: 8 Gy/4 fr
  ISRE reporter: 1.06
A549-Dual [2]; irradiation: none
  ISRE reporter: 0.653

## CN1CCN(C(c2ccccc2)c2ccccc2)CC1.Cl.Cl [Cyclizine 2HCl]
A549-Dual [1]; irradiation: 8 Gy/4 fr
  NF-kB reporter: 0.957
A549-Dual [1]; irradiation: none
  NF-kB reporter: 0.922
A549-Dual [2]; irradiation: 8 Gy/4 fr
  ISRE reporter: 1.18
A549-Dual [2]; irradiation: none
  ISRE reporter: 0.858

## O=C(c1ccccc1)c1ccc2n1CCC2C(=O)O (stereo not drawn) [Ketorolac]
A549-Dual [1]; irradiation: 8 Gy/4 fr
  NF-kB reporter: 1.01
A549-Dual [1]; irradiation: none
  NF-kB reporter: 0.69
A549-Dual [2]; irradiation: 8 Gy/4 fr
  ISRE reporter: 0.991
A549-Dual [2]; irradiation: none
  ISRE reporter: 0.571

## CCN(CC)CCOCCOC(=O)C(CC)(CC)c1ccccc1.O=C(O)CC(O)(CC(=O)O)C(=O)O [Oxeladin Citrate]
A549-Dual [1]; irradiation: 8 Gy/4 fr
  NF-kB reporter: 1.25
A549-Dual [1]; irradiation: none
  NF-kB reporter: 0.823
A549-Dual [2]; irradiation: 8 Gy/4 fr
  ISRE reporter: 1.27
A549-Dual [2]; irradiation: none
  ISRE reporter: 0.912

## COc1ccc(CN(CCN(C)C)c2ccccn2)cc1.O=C(O)/C=C\C(=O)O [Pyrilamine Maleate]
A549-Dual [1]; irradiation: 8 Gy/4 fr
  NF-kB reporter: 1.06
A549-Dual [1]; irradiation: none
  NF-kB reporter: 0.8
A549-Dual [2]; irradiation: 8 Gy/4 fr
  ISRE reporter: 0.896
A549-Dual [2]; irradiation: none
  ISRE reporter: 0.558

## NCC(=O)NCC(=O)O [Glycylglycine]
A549-Dual [1]; irradiation: 8 Gy/4 fr
  NF-kB reporter: 1.27
A549-Dual [1]; irradiation: none
  NF-kB reporter: 0.771
A549-Dual [2]; irradiation: 8 Gy/4 fr
  ISRE reporter: 1.34
A549-Dual [2]; irradiation: none
  ISRE reporter: 1.11

## CCC(C)CC(C)CCCCCCCCC(=O)NC1CC(O)C(O)NC(=O)C2C(O)CCN2C(=O)C(C(O)CC(N)=O)NC(=O)C(C(O)C(O)c2ccc(O)cc2)NC(=O)C2CC(O)CN2C(=O)C(C(C)O)NC1=O (stereo not drawn) [Pneumocandin B0]
A549-Dual [1]; irradiation: 8 Gy/4 fr
  NF-kB reporter: 0.73
A549-Dual [1]; irradiation: none
  NF-kB reporter: 0.901
A549-Dual [2]; irradiation: 8 Gy/4 fr
  ISRE reporter: 0.772
A549-Dual [2]; irradiation: none
  ISRE reporter: 0.804

## CCCCc1nc(Cl)c(CO)n1Cc1ccc(-c2ccccc2-c2nnn[nH]2)cc1 [Losartan]
A549-Dual [1]; irradiation: 8 Gy/4 fr
  NF-kB reporter: 0.708
A549-Dual [1]; irradiation: none
  NF-kB reporter: 0.717
A549-Dual [2]; irradiation: 8 Gy/4 fr
  ISRE reporter: 0.691
A549-Dual [2]; irradiation: none
  ISRE reporter: 0.471

## COc1cccc(-c2c(C)n(Cc3c(F)cccc3C(F)(F)F)c(=O)n(CC(NCCCC(=O)[O-])c3ccccc3)c2=O)c1F.[Na+] (stereo not drawn) [Elagolix Sodium]
A549-Dual [1]; irradiation: 8 Gy/4 fr
  NF-kB reporter: 0.675
A549-Dual [1]; irradiation: none
  NF-kB reporter: 1.09
A549-Dual [2]; irradiation: 8 Gy/4 fr
  ISRE reporter: 0.785
A549-Dual [2]; irradiation: none
  ISRE reporter: 1.03
